Measurements published in patent US12240853B2, “Compounds useful in HIV therapy” (GlaxoSmithKline Intellectual Property (No.2) Limited, priority 2019, dated 2025).

System: HIV pseudotyped virus, WT
Test: microbe, parasite or virus in culture
Settings: for IC50: Human immunodeficiency virus 1, U373 MG; for Fold Change vs EFdA: fold change of the persistence index relative to EFdA; for Persistence Index: ratio of the IC50 determined at 48 and 0 h
Procedure: The PSV assay was adapted to determine the antiviral persistence of each compound. This assay evaluates the ability of each compound to remain active in cells for two days i.e prevent PSV infection of cells in a dose dependent manner, 48 h after the removal of compound. Duplicate plates of U373 cells were treated with a serial dilution of small molecule inhibitors for 6 h at 37° C. Compounds were removed from cells by washing twice cells with 1×PBS. For baseline group (i.e immediately after washing or 0 h), cells were infected with prepared PSVs and cultured for three days. For experimental group (48 h), the culture medium is added to the washed cells and the plate incubated at 37° C. for 48 h. After two days of culture, the prepared PSVs were added to the cells and the mixture cultured for three days. […] The persistence index, which is the ratio of the IC50 determined at 48 and 0 h is presented in Table 2 as well as the fold change of the persistence index relative to EFdA [(2R,3S,5R)-5-(6-amino-2-fluoro-9H-purin-9-yl)-2-ethynyl-2-(hydroxymethyl)tetrahydrofuran-3-ol].
Statistical analysis and graphing of the data were performed in JMP 13.2.1 (SAS Institute, Cary, NC). A four-parameter logistic Hill Model was fit to % Inhibition and log10 concentration values, separately for each compound, time point and run. A pilot experiment included 2 independent experimental runs and a later follow-up experiment included 4 runs. Quality control criteria based on R^2 and 95% confidence interval ranges of all four parameter estimates were used to exclude curves with poor fits. Using inverse prediction, log10 concentrations were obtained that correspond to 50% Inhibition (log10IC50*) and the log10 persistence index was calculated for each compound and run using the following formula: log10 persistence Index=log10IC50*48 hrs−log10IC50*0hrs. Next, a linear mixed effects model was fit on log10 persistence index values with a fixed effect for compound and a random effect for experimental run, followed by post hoc contrasts to compare the log10 persistence index of the positive control EFdA to the log10 persistence index of other test compounds. The estimated LSMeans and differences were then back-transformed via 10^Estimate to the original scale and reported as persistence index and fold change respectively. Raw p-values were reported. […] The curves in FIG. 1 were obtained from a single curve fit across replicate runs instead of separate fits for each run as described above.

| SMILES | IC50 (read-out: WT IC50 at t = 0 h) [nM] | IC50 (read-out: WT IC50 at t = 48 h) [nM] | Fold Change vs EFdA | Persistence Index |
| --- | --- | --- | --- | --- |
| C#C[C@]1(CO)O[C@@H](n2cnc3c(N)nc(F)nc32)C[C@@H]1O [EFdA, (2R,3S,5R)-5-(6-amino-2-fluoro-9H-purin-9-yl)-2-ethynyl-2-(hydroxymethyl)tetrahydrofuran-3-ol, reference compound] | 7.4 | 316 | 1.00 | 42.87 |
| C#C[C@]1(COC(=O)CCCCCCCCC)O[C@@H](n2cnc3c(N)nc(F)nc32)C[C@@H]1OC(=O)OCC [Example 15, ((2R,3S,5R)-5-(6-amino-2-fluoro-9H-purin-9-yl)-3-((ethoxycarbonyl)oxy)-2-ethynyltetrahydrofuran-2-yl)methyl Decanoate] | 34.3 | 120 | 12.23 | 3.51 |
| C#C[C@]1(COC(=O)CCCCCC)O[C@@H](n2cnc3c(N)nc(F)nc32)C[C@@H]1OC(=O)CCCCCC [Example 16, (2R,3S,5R)-5-(6-amino-2-fluoro-9H-purin-9-yl)-2-ethynyl-2-((heptanoyloxy)methyl)tetrahydrofuran-3-yl Heptanoate] | 5.5 | 35.9 | 6.61 | 6.49 |
| C#C[C@]1(COC(=O)CCCCCCCCC)O[C@@H](n2cnc3c(N)nc(F)nc32)C[C@@H]1OC(=O)CCCCCCCCC [Example 18, (2R,3S,5R)-5-(6-amino-2-fluoro-9H-purin-9-yl)-2-((decanoyloxy)methyl)-2-ethynyltetrahydrofuran-3-yl Decanoate] | 16.1 | 44.2 | 15.59 | 2.75 |

Read-outs that look alike come from different tables or passages of the source.
